Whole data set: some 81,000 sequences, median “one-hybrid fitness for binding parS DNA” near -0.17, cut for the highest 2% near 0.51. The list shows a part of the results.
B1: Caulobacter ParB omega fusion; a variant is named by its letters at X, in order, B8GW30 (parent)
chain: MESVVVGEPGMSEGRRGLGRGLSALLGEVDAAPAQAPGEQLGGSREAPIEILQRNPDQPRRTFREEDLEDLSNSIREKGVLQPILVRPSPDTAGEYQIVAGERAWRAAQRAGLKTVPIMVRELDDLAVLEIGIIENVQRADLNVLEEALSYKVLMEKFERTQENIAQTIGKSXSHVANXMRLLXLPDEVQSYLVSGELTAXHARAIAAAADPVALAKQIIEGGLSVRETEALARKAPNLSAGKSKGGRPPRVKDTDTQALESDLSSVLGLDVSIDHRGSTGTLTITYATLEQLDDLCNRLTRGI

Variants of: B1
Assay: one-hybrid fitness for binding parS DNA (scaled: cognate 1, non-cognate 0); higher = stronger binding
Details: with parS DNA site
Procedure, shortened: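 Selection: bacterial one-hybrid in E. coli USO, HIS3 reporter with the site 19 bp from the promoter, 48 hours at 37°C on M9-minus-histidine plus 0.1 mM IPTG and 5 mM 3-AT. Libraries were Caulobacter ParB with four randomised specificity codons, sequenced on Illumina before and after selection. Fitness is the rescaled log change in variant-to-wild-type read ratio, anchored to the cognate and non-cognate sites.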

Variant	one-hybrid fitness for binding parS DNA
YPDG	≤ 0.2
EDIS	≤ 0.2
RQCC	0.874
VFKW	≤ 0.2
APGE	≤ 0.2
RQGC	0.916
MVAG	≤ 0.2
MSDN	≤ 0.2
KQKW	≤ 0.2
TWYG	≤ 0.2
NWCT	≤ 0.2
QCIA	≤ 0.2
TKRT	≤ 0.2
DHMR	≤ 0.2
HRKG	0.357
QMSV	≤ 0.2
GMMC	≤ 0.2
TCPP	≤ 0.2
QLEA	≤ 0.2
SANN	≤ 0.2
CDLT	≤ 0.2
KKTN	≤ 0.2
ASVF	≤ 0.2
DYLW	≤ 0.2

Variant	one-hybrid fitness for binding parS DNA
LKFM	≤ 0.2
RFAP	≤ 0.2
RIGW	0.22
ELLG	≤ 0.2
QLPA	≤ 0.2
RLHC	0.973
PVVG	≤ 0.2
RTNV	≤ 0.2
PWDR	≤ 0.2
HLCV	≤ 0.2
TACA	≤ 0.2
QSWC	≤ 0.2
NCEY	≤ 0.2
MAKY	≤ 0.2
RTRI	≤ 0.2
EMKV	≤ 0.2
SKKF	≤ 0.2
YLMS	≤ 0.2
MAFT	≤ 0.2
RCIE	0.206
QAND	≤ 0.2
PNKT	≤ 0.2
PVSM	≤ 0.2
ITPL	≤ 0.2

Variant	one-hybrid fitness for binding parS DNA
CLAM	≤ 0.2
VNPG	≤ 0.2
GIRT	≤ 0.2
KGDR	≤ 0.2
KQAG	≤ 0.2
RRPG	0.891
QIFG	≤ 0.2
YIFR	≤ 0.2
YMPS	≤ 0.2
SGYA	0.28
MWAC	≤ 0.2
HEQG	≤ 0.2
ERPT	≤ 0.2
NYDV	≤ 0.2
IHCR	≤ 0.2
WSVS	≤ 0.2
WHAS	≤ 0.2
ADHW	≤ 0.2
RNSG	0.921
PPFE	≤ 0.2
YLCL	≤ 0.2
FNPH	≤ 0.2
DWVY	≤ 0.2
AHHM	≤ 0.2

Variant	one-hybrid fitness for binding parS DNA
HSCP	≤ 0.2
GRLN	≤ 0.2
IIPT	≤ 0.2
EYST	≤ 0.2
EQQG	≤ 0.2
VKDE	≤ 0.2
ARVS	≤ 0.2
QYHI	≤ 0.2
KRQS	≤ 0.2
TCTH	≤ 0.2
LALI	≤ 0.2
RQGW	0.21
QMLM	≤ 0.2
GTIL	≤ 0.2
RRTA	0.656
WKQS	≤ 0.2
QVFV	≤ 0.2
KYLS	≤ 0.2
KKWY	≤ 0.2
AETM	≤ 0.2
RACY	0.435
TYKS	≤ 0.2
TYDN	≤ 0.2
ERAM	≤ 0.2

Variant	one-hybrid fitness for binding parS DNA
LSEL	≤ 0.2
KSQR	≤ 0.2
RDSS	≤ 0.2
YKCR	≤ 0.2
TQGQ	≤ 0.2
ENKL	≤ 0.2
KTCL	≤ 0.2
AQEL	≤ 0.2
YTVE	≤ 0.2
SYLN	≤ 0.2
LVLK	≤ 0.2
TPPQ	≤ 0.2
TYFR	≤ 0.2
TNNS	≤ 0.2
KPNS	≤ 0.2
DIMR	≤ 0.2
TQDR	≤ 0.2
RHLH	0.229
ESNL	≤ 0.2
LAQR	≤ 0.2
RWQN	0.264
PVMY	≤ 0.2
MGVV	≤ 0.2
SSYP	≤ 0.2

Variant	one-hybrid fitness for binding parS DNA
IRWP	≤ 0.2
RGQV	≤ 0.2
SCRS	≤ 0.2
TNHF	≤ 0.2
THFL	≤ 0.2
HLFS	≤ 0.2
RHQK	≤ 0.2
CPER	≤ 0.2
YWRF	≤ 0.2
EMGY	≤ 0.2
ATYC	≤ 0.2
MPYG	≤ 0.2
MKSG	≤ 0.2
NLTN	≤ 0.2
TGML	≤ 0.2
DRGE	≤ 0.2
ANMR	≤ 0.2
RNAQ	≤ 0.2
HQHR	≤ 0.2
QKHM	≤ 0.2
EGMT	≤ 0.2
WIQG	≤ 0.2
AETR	≤ 0.2
RIHK	≤ 0.2

Variant	one-hybrid fitness for binding parS DNA
DTKG	≤ 0.2
LVSK	≤ 0.2
RSPS	0.541
TMAV	≤ 0.2
RANC	0.98
ASVI	≤ 0.2
MTHL	≤ 0.2
SYLR	≤ 0.2
IPQH	≤ 0.2
VKYS	≤ 0.2
WMSM	≤ 0.2
LKRG	≤ 0.2
QSRH	≤ 0.2
NFDV	≤ 0.2
HIDG	≤ 0.2
KASC	≤ 0.2
DAYC	≤ 0.2
HAVC	≤ 0.2
EGAG	≤ 0.2
FPQN	≤ 0.2
QAGF	≤ 0.2
TVYE	≤ 0.2
MNNC	≤ 0.2
LFHC	≤ 0.2

Variant	one-hybrid fitness for binding parS DNA
ASAW	≤ 0.2
WAEG	≤ 0.2
GQLR	≤ 0.2
SNTR	≤ 0.2
AHKN	≤ 0.2
QINR	≤ 0.2
KWEG	≤ 0.2
VCPP	≤ 0.2
KVPT	≤ 0.2
GCPN	≤ 0.2
GEGS	≤ 0.2
EMTT	≤ 0.2
PAEM	≤ 0.2
GRCM	≤ 0.2
SGVD	≤ 0.2
RRWM	≤ 0.2
PKNA	≤ 0.2
GLPM	≤ 0.2
IISY	≤ 0.2
PPPH	≤ 0.2
EIGT	≤ 0.2
WVES	≤ 0.2
SLPF	≤ 0.2
QMIY	≤ 0.2

Variant	one-hybrid fitness for binding parS DNA
KLAC	≤ 0.2
RGFG	0.504
AIHY	≤ 0.2
RIMC	0.986
RQKM	0.365
VSDS	≤ 0.2
CRSN	≤ 0.2
HWRS	≤ 0.2
CDIR	≤ 0.2
EPDC	≤ 0.2
WAKD	≤ 0.2
GDFS	≤ 0.2
IRAT	≤ 0.2
GNQN	≤ 0.2
LMDV	≤ 0.2
WPAN	≤ 0.2
CWYR	≤ 0.2
VWQD	≤ 0.2
NTRA	≤ 0.2
KSAI	≤ 0.2
QCLT	≤ 0.2
YRKT	≤ 0.2
EMAG	≤ 0.2
GPCF	≤ 0.2

Variant	one-hybrid fitness for binding parS DNA
SWIR	≤ 0.2
GNKI	≤ 0.2
ESDG	≤ 0.2
MVLY	≤ 0.2
RGGT	0.493
RDCT	≤ 0.2
CALI	≤ 0.2
PNTM	≤ 0.2
AREP	≤ 0.2
LSWR	≤ 0.2
SLRS	≤ 0.2
QQSL	≤ 0.2
WTNW	≤ 0.2
RMYW	0.216
LCAV	≤ 0.2
YHYF	≤ 0.2
TLMP	≤ 0.2
LIPC	≤ 0.2
PWNM	≤ 0.2
SKWG	≤ 0.2
SYTA	≤ 0.2
GDQS	≤ 0.2
IAKY	≤ 0.2
WTIG	≤ 0.2

Variant	one-hybrid fitness for binding parS DNA
MAVH	≤ 0.2
ETAR	≤ 0.2
ATSS	≤ 0.2
AHLT	≤ 0.2
RLPE	≤ 0.2
DPGG	≤ 0.2
STQT	≤ 0.2
RNNN	0.385
EAKT	≤ 0.2
VAGI	≤ 0.2
FYPL	≤ 0.2
WRAI	≤ 0.2
GRRF	≤ 0.2
QLGE	≤ 0.2
ANIS	≤ 0.2
NLVY	≤ 0.2
RCGT	0.882
EFKS	≤ 0.2
KQRM	≤ 0.2
SLLA	≤ 0.2
SYWR	≤ 0.2
KLII	≤ 0.2
VVGT	≤ 0.2
PDDC	≤ 0.2

Variant	one-hybrid fitness for binding parS DNA
PYWF	≤ 0.2
QVFP	≤ 0.2
STDS	≤ 0.2
VLIR	≤ 0.2
MPER	≤ 0.2
ARPP	≤ 0.2
VPRS	≤ 0.2
PTET	≤ 0.2
QTVK	≤ 0.2
IPHC	≤ 0.2
ARYY	≤ 0.2
QWNT	≤ 0.2
PCPT	≤ 0.2
KQNY	≤ 0.2
RCTC	1
TARC	≤ 0.2
QWTQ	≤ 0.2
QVTM	≤ 0.2
RDHI	≤ 0.2
FWPR	≤ 0.2
ENSG	≤ 0.2
WTKG	≤ 0.2
RALS	1.03
SLWS	≤ 0.2

Variant	one-hybrid fitness for binding parS DNA
LMHG	≤ 0.2
SFGG	≤ 0.2
NAYS	≤ 0.2
VNAS	≤ 0.2
IEQS	≤ 0.2
KMQG	≤ 0.2
SEKG	≤ 0.2
SHID	≤ 0.2
KAEM	≤ 0.2
KEVR	≤ 0.2
MSIG	≤ 0.2
KQSH	≤ 0.2
NCHC	≤ 0.2
TATF	≤ 0.2
TMDA	≤ 0.2
NSME	≤ 0.2
LMKV	≤ 0.2
MHQL	≤ 0.2

Reference: a collection of fitness landscapes (doi:10.1016/j.celrep.2020.107928)
